Measurements from paper PMC9911399, “Two distinct binding modes provide the RNA-binding protein RbFox with extraordinary sequence specificity”.
Substitutions are numbered along the chain they refer to; changes in the protein carry UniProt numbers. Some of the results follow.

B1: CCGCACU (DNA:RNA)
RNA: GGGAGACCGGAAUUCAGAUUGUCCCCGCACUUUAAAUCCCGUCGUAGCCACCA
DNA 1: CAATCTGAATTCCGGTCTCCC
DNA 2: TGGTGGCTACGACGGGATT
B2: ACCCUAG (DNA:RNA)
RNA: B1 RNA with C25A, G27C, A29U, C30A, U31G
DNA 1: CAATCTGAATTCCGGTCTCCC
DNA 2: TGGTGGCTACGACGGGATT
B3: ACCGCGC (DNA:RNA)
RNA: B1 RNA with C25A, G27C, C28G, A29C, C30G, U31C
DNA 1: CAATCTGAATTCCGGTCTCCC
DNA 2: TGGTGGCTACGACGGGATT
B4: GCCGAAC (DNA:RNA)
RNA: B1 RNA with C25G, G27C, C28G, C30A, U31C
DNA 1: CAATCTGAATTCCGGTCTCCC
DNA 2: TGGTGGCTACGACGGGATT
B5: UAGGUUC (DNA:RNA)
RNA: B1 RNA with C25U, C26A, C28G, A29U, C30U, U31C
DNA 1: CAATCTGAATTCCGGTCTCCC
DNA 2: TGGTGGCTACGACGGGATT
B6: CCGGCUA (DNA:RNA)
RNA: B1 RNA with C28G, A29C, C30U, U31A
DNA 1: CAATCTGAATTCCGGTCTCCC
DNA 2: TGGTGGCTACGACGGGATT
B7: CCUAAUG (DNA:RNA)
RNA: B1 RNA with G27U, C28A, C30U, U31G
DNA 1: CAATCTGAATTCCGGTCTCCC
DNA 2: TGGTGGCTACGACGGGATT
B8: AGAUCGG (DNA:RNA)
RNA: GGGAGACCGGAAUUCAGAUUGUCCAGAUCGGUUAAAUCCCGUCGUAGCCACCA
DNA 1: CAATCTGAATTCCGGTCTCCC
DNA 2: TGGTGGCTACGACGGGATT
B9: GGGCUGC (DNA:RNA)
RNA: B8 RNA with A25G, A27G, U28C, C29U, G31C
DNA 1: CAATCTGAATTCCGGTCTCCC
DNA 2: TGGTGGCTACGACGGGATT
B10: UUAAGAA (DNA:RNA)
RNA: B8 RNA with A25U, G26U, U28A, C29G, G30A, G31A
DNA 1: CAATCTGAATTCCGGTCTCCC
DNA 2: TGGTGGCTACGACGGGATT
B11: CUGUAUU (DNA:RNA)
RNA: B1 RNA with C26U, C28U, C30U
DNA 1: CAATCTGAATTCCGGTCTCCC
DNA 2: TGGTGGCTACGACGGGATT
B12: UAAGUGU (DNA:RNA)
RNA: B8 RNA with A25U, G26A, U28G, C29U, G31U
DNA 1: CAATCTGAATTCCGGTCTCCC
DNA 2: TGGTGGCTACGACGGGATT
B13: GUGAUAA (DNA:RNA)
RNA: B1 RNA with C25G, C26U, C28A, A29U, C30A, U31A
DNA 1: CAATCTGAATTCCGGTCTCCC
DNA 2: TGGTGGCTACGACGGGATT
B14: CGGAGCG (DNA:RNA)
RNA: B1 RNA with C26G, C28A, A29G, U31G
DNA 1: CAATCTGAATTCCGGTCTCCC
DNA 2: TGGTGGCTACGACGGGATT
B15: GUGGUGA (DNA:RNA)
RNA: B8 RNA with A25G, G26U, A27G, U28G, C29U, G31A
DNA 1: CAATCTGAATTCCGGTCTCCC
DNA 2: TGGTGGCTACGACGGGATT
B16: AGUGAGG (DNA:RNA)
RNA: B8 RNA with A27U, U28G, C29A
DNA 1: CAATCTGAATTCCGGTCTCCC
DNA 2: TGGTGGCTACGACGGGATT
B17: ACAAGAG (DNA:RNA)
RNA: B8 RNA with G26C, U28A, C29G, G30A
DNA 1: CAATCTGAATTCCGGTCTCCC
DNA 2: TGGTGGCTACGACGGGATT
B18: UUGCGUA (DNA:RNA)
RNA: B1 RNA with C25U, C26U, A29G, C30U, U31A
DNA 1: CAATCTGAATTCCGGTCTCCC
DNA 2: TGGTGGCTACGACGGGATT
B19: CUGCACG (DNA:RNA)
RNA: B1 RNA with C26U, U31G
DNA 1: CAATCTGAATTCCGGTCTCCC
DNA 2: TGGTGGCTACGACGGGATT
B20: UGAGUUU (DNA:RNA)
RNA: B8 RNA with A25U, U28G, C29U, G30U, G31U
DNA 1: CAATCTGAATTCCGGTCTCCC
DNA 2: TGGTGGCTACGACGGGATT
B21: UAGCGAG (DNA:RNA)
RNA: B1 RNA with C25U, C26A, A29G, C30A, U31G
DNA 1: CAATCTGAATTCCGGTCTCCC
DNA 2: TGGTGGCTACGACGGGATT
B22: AUGUUGU (DNA:RNA)
RNA: B8 RNA with G26U, A27G, C29U, G31U
DNA 1: CAATCTGAATTCCGGTCTCCC
DNA 2: TGGTGGCTACGACGGGATT
B23: GACAACU (DNA:RNA)
RNA: B1 RNA with C25G, C26A, G27C, C28A
DNA 1: CAATCTGAATTCCGGTCTCCC
DNA 2: TGGTGGCTACGACGGGATT
B24: CCUUCAU (DNA:RNA)
RNA: B1 RNA with G27U, C28U, A29C, C30A
DNA 1: CAATCTGAATTCCGGTCTCCC
DNA 2: TGGTGGCTACGACGGGATT
B25: GCCCUAA (DNA:RNA)
RNA: B1 RNA with C25G, G27C, A29U, C30A, U31A
DNA 1: CAATCTGAATTCCGGTCTCCC
DNA 2: TGGTGGCTACGACGGGATT
B26: UCGAGAG (DNA:RNA)
RNA: B1 RNA with C25U, C28A, A29G, C30A, U31G
DNA 1: CAATCTGAATTCCGGTCTCCC
DNA 2: TGGTGGCTACGACGGGATT
B27: UAGAUGA (DNA:RNA)
RNA: B8 RNA with A25U, G26A, A27G, U28A, C29U, G31A
DNA 1: CAATCTGAATTCCGGTCTCCC
DNA 2: TGGTGGCTACGACGGGATT
B28: AACUUUU (DNA:RNA)
RNA: B8 RNA with G26A, A27C, C29U, G30U, G31U
DNA 1: CAATCTGAATTCCGGTCTCCC
DNA 2: TGGTGGCTACGACGGGATT
B29: UAAUUCU (DNA:RNA)
RNA: B8 RNA with A25U, G26A, C29U, G30C, G31U
DNA 1: CAATCTGAATTCCGGTCTCCC
DNA 2: TGGTGGCTACGACGGGATT
B30: GUGUGUU (DNA:RNA)
RNA: B1 RNA with C25G, C26U, C28U, A29G, C30U
DNA 1: CAATCTGAATTCCGGTCTCCC
DNA 2: TGGTGGCTACGACGGGATT
B31: AUUACAU (DNA:RNA)
RNA: B8 RNA with G26U, A27U, U28A, G30A, G31U
DNA 1: CAATCTGAATTCCGGTCTCCC
DNA 2: TGGTGGCTACGACGGGATT

Each binder was assayed against T1, RBFOX1 RRM (Homo sapiens, UniProt Q9NWB1 109-208) (assay: EMSA; HiTS-Eq, 1 nM pool, 10 min; buffer printed only for the single-RNA assays: 10 mM Tris pH 7.5, 150 mM NaCl, 3.4 mM EDTA, 0.001% NP-40, 30 C). Conditions: tags: His6 N-terminal (pET28a); label: 5' 32P.
T1 sequence: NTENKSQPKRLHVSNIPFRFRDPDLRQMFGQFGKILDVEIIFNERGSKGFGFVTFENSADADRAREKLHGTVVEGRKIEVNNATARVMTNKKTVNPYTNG
Outline: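 Purified RbFox RRM, wild type or mutant, was incubated for 10 min in 50 µL with 1 nM of a 5′-radiolabelled RNA pool carrying 7 randomized nucleotides, whose flanks were annealed to DNA oligonucleotides, over a series of increasing protein concentrations. Unbound RNA was resolved on 8% native PAGE, cut out, reverse-transcribed, barcoded by PCR and sequenced on an Illumina HiSeq 2500. Relative association constants were derived from changes in read counts for each RNA species versus the control reaction and normalised to the cognate motif.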

Row | Binder | binding signal
1 | B1 | 0.00621 KA relative to UGCAUGU
2 | B2 | 0.00387 KA relative to UGCAUGU
3 | B3 | 0.00734 KA relative to UGCAUGU
4 | B4 | 0.0141 KA relative to UGCAUGU
5 | B5 | 0.0212 KA relative to UGCAUGU
6 | B6 | 0.0133 KA relative to UGCAUGU
7 | B7 | 0.00839 KA relative to UGCAUGU
8 | B8 | 0.014 KA relative to UGCAUGU
9 | B9 | 0.0228 KA relative to UGCAUGU
10 | B10 | 0.0137 KA relative to UGCAUGU
11 | B11 | 0.00801 KA relative to UGCAUGU
12 | B12 | 0.0159 KA relative to UGCAUGU
13 | B13 | 0.00986 KA relative to UGCAUGU
14 | B14 | 0.0221 KA relative to UGCAUGU
15 | B15 | 0.0177 KA relative to UGCAUGU
16 | B16 | 0.0155 KA relative to UGCAUGU

Row | Binder | binding signal
17 | B17 | 0.00481 KA relative to UGCAUGU
18 | B18 | 0.0144 KA relative to UGCAUGU
19 | B19 | 0.616 KA relative to UGCAUGU
20 | B20 | 0.0172 KA relative to UGCAUGU
21 | B21 | 0.00956 KA relative to UGCAUGU
22 | B22 | 0.0143 KA relative to UGCAUGU
23 | B23 | 0.000954 KA relative to UGCAUGU
24 | B24 | 0.00318 KA relative to UGCAUGU
25 | B25 | 0.00697 KA relative to UGCAUGU
26 | B26 | 0.0125 KA relative to UGCAUGU
27 | B27 | 0.0121 KA relative to UGCAUGU
28 | B28 | 0.00145 KA relative to UGCAUGU
29 | B29 | 0.00513 KA relative to UGCAUGU
30 | B30 | 0.0201 KA relative to UGCAUGU
31 | B31 | 0.00244 KA relative to UGCAUGU
